The source of these data is paper PMC4336329 (PLoS ONE, 2015).

About 2,200 (0.71%) of roughly 310,000 compounds showed an effect of 50% or more. The effect is printed as a negative number. Some of the results follow.

The target in this assay is human ether-à-go-go-related gene (hERG) potassium channel (human, UniProt Q12809). Briefly: primary screen, population patch clamp on CHO cells stably expressing hERG.
Chain of human ether-à-go-go-related gene (hERG) potassium channel (Q12809 whole entry, looked up): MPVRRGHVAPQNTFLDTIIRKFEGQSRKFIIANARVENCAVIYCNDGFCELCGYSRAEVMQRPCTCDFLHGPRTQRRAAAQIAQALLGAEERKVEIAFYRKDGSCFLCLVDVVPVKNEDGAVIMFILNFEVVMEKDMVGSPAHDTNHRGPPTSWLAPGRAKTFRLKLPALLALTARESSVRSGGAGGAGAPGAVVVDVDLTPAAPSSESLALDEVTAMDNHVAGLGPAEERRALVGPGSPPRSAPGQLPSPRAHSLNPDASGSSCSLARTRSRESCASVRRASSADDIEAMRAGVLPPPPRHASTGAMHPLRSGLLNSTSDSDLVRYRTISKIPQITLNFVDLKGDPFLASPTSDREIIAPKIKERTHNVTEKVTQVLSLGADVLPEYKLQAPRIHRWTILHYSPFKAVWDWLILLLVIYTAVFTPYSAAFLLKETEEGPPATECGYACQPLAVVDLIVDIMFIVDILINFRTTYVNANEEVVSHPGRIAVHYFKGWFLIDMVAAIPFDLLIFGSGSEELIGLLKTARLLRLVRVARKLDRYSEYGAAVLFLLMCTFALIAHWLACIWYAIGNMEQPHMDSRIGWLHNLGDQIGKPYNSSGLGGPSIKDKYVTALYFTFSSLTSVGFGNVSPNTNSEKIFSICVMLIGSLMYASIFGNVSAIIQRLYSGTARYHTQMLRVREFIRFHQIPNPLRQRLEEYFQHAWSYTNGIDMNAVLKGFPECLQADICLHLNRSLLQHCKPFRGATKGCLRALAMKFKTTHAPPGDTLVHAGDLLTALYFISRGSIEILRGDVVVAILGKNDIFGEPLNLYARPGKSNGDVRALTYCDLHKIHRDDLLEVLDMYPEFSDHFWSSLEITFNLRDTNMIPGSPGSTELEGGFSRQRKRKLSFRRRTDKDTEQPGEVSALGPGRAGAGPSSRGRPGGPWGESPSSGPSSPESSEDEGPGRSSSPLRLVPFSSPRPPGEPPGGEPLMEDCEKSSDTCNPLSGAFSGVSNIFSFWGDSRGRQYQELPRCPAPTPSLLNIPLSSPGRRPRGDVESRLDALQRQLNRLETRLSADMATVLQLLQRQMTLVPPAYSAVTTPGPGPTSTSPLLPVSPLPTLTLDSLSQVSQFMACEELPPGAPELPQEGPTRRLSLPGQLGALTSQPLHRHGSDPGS
Turning to `Cn1c(=O)c(=O)n(C)c2cc(S(=O)(=O)NCCOc3ccccc3)ccc21`, the “hERG current change (%, negative = inhibition) at 1uM” value worked out at 11.1%.
As for `NC(=O)CSc1nc2sc3c(c2c2ncnn12)CCCC3`, the figure is -12.8%.
As to `CCS(=O)(=O)N1Cc2ccccc2CC1C(=O)Nc1nc2ccc(F)cc2s1` (stereo not drawn), the “hERG current change (%, negative = inhibition) at 1uM” value is recorded as 14.5%.
Regarding `COCCNC(=O)CN(CCc1ccccc1)S(=O)(=O)c1ccc(OC)cc1`, the “hERG current change (%, negative = inhibition) at 1uM” value was determined as 2.75%.
Consider `O=C(Nc1cc2ccccc2oc1=O)c1ccccc1`, for which the “hERG current change (%, negative = inhibition) at 1uM” value is 16%.
With `CC1CCc2cccc3c(O)cc(=O)n1c23` (stereo not drawn), the “hERG current change (%, negative = inhibition) at 1uM” value is on record as 13.1%.
Turning to `COC(=O)c1[nH]c2ccc(C)cc2c1NS(=O)(=O)c1ccc(F)cc1`, the “hERG current change (%, negative = inhibition) at 1uM” value is on record as 5.82%.
As to `CCN1CCN(c2ccc(S(=O)(=O)N3CCCCC3)cc2NC(=O)COc2ccc(Cl)c(C)c2)CC1`, the “hERG current change (%, negative = inhibition) at 1uM” value is -3.72%.
As for `CCc1nnc(SCc2cccc(F)c2)nc1CC`, the “hERG current change (%, negative = inhibition) at 1uM” value is 6.68%.
Take `CC(C)c1nc(CNC(=O)c2cc(COc3c(F)cccc3F)on2)cs1`: the “hERG current change (%, negative = inhibition) at 1uM” value stood at 0.197%.
For the molecule `O=C(CSc1nnnn1C1CCCC1)Nc1ccc2c(c1)OCO2`, the “hERG current change (%, negative = inhibition) at 1uM” value is recorded as 14.3%.
As for `c1ccc(CCN2CN(CCCN3CCOCC3)c3nc4ccccc4n3C2)cc1`, the “hERG current change (%, negative = inhibition) at 1uM” value is -14.4%.
On to `O=C(Nc1ccc(-n2nncc2-c2ccco2)cc1)c1cccc(F)c1`, for which the “hERG current change (%, negative = inhibition) at 1uM” value came to 1.86%.
As to `COc1ccc(-c2nc(CCNS(=O)(=O)c3ccc4c(c3)OCCO4)cs2)cc1`, the “hERG current change (%, negative = inhibition) at 1uM” value is on record as -15.7%.
Consider `Cl.Cn1nnnc1SCCNCc1cc(Cl)ccc1OCc1ccccc1`, for which the “hERG current change (%, negative = inhibition) at 1uM” value is given as -11.5%.
Turning to `O=C(CN1CCC(n2nnc3cc(F)ccc32)CC1)N1CCCc2ccccc21`, the “hERG current change (%, negative = inhibition) at 1uM” value is reported as -37.2%.
`CCCCCn1c(CN2CCN(C)CC2)nc2c1c(=O)n(C)c(=O)n2C`: the “hERG current change (%, negative = inhibition) at 1uM” value was -5.24%.
For the molecule `CCCN(CCC)CC(O)COc1ccc2c(c1)OCO2.Cl` (stereo not drawn), the “hERG current change (%, negative = inhibition) at 1uM” value is reported as -14.7%.
Consider `O=C(Nc1cccc2nsnc12)c1ccc(-c2cccc(Cl)c2)o1`, for which the “hERG current change (%, negative = inhibition) at 1uM” value stood at 10.3%.
Consider `CC(C)c1nc2ccccc2c2nnc(SCC(=O)NCc3ccco3)n12`, for which the “hERG current change (%, negative = inhibition) at 1uM” value is 3.02%.
As to `O=C(Nc1ccon1)Nc1ccc(F)cc1F`, the “hERG current change (%, negative = inhibition) at 1uM” value worked out at 11.3%.
For `COc1ccc(/C=N/N2CCN(c3ccccc3)CC2)cc1Br`, the “hERG current change (%, negative = inhibition) at 1uM” value is listed as 11.2%.
Consider `NC(=O)Nc1ccc(Oc2ncc(C(F)(F)F)cc2Cl)cc1`, for which the “hERG current change (%, negative = inhibition) at 1uM” value turned out to be 16.2%.
Consider `O=C(Nc1cc(Cl)cc(Cl)c1)C(c1ccccc1)N1CCCCC1` (stereo not drawn), for which the “hERG current change (%, negative = inhibition) at 1uM” value stood at 1.7%.
As for `COC(=O)c1sc(S(=O)(=O)Nc2ccc(C)cc2)c(C(=O)OC)c1C`, the “hERG current change (%, negative = inhibition) at 1uM” value is 14.4%.
Then `O=C(Nc1nnc(-c2ccco2)o1)c1ccc(N2C(=O)CCC2=O)cc1`, with 14.3%; and `O=C(Nc1cc(Cl)cc(Cl)c1)C1C2C=CC3(O2)C1C(=O)N(CCCN1CCOCC1)C3C(=O)NC1CCCCC1` (stereo not drawn), with 10.6%; and `CCN1CCN(c2ccc(S(=O)(=O)N3CCCCC3)cc2NC(=O)/C=C/c2ccc(OC(F)F)cc2)CC1`, with -1.19%.
On to `COc1c(C)cccc1C(=O)NCCCNC(=O)c1ccc(C)nc1`, for which the “hERG current change (%, negative = inhibition) at 1uM” value worked out at 7.26%.
As for `COc1ccc(S(=O)(=O)Cc2ccc(C(=O)NCc3cccnc3)o2)cc1`, the figure is 2.58%; as for `O=C(O)/C=C/c1cn(Cc2ccccc2)nc1-c1cccs1`, 15.7%.
Consider `CN(C)CC/C=C1\c2ccccc2CSc2ccccc21.Cl`, for which the “hERG current change (%, negative = inhibition) at 1uM” value is given as -6.36%.
As for `Nc1nc(-c2cccc(F)c2)cs1`, the “hERG current change (%, negative = inhibition) at 1uM” value is given as 14.4%.
Regarding `CCOCC(=O)N1CCCC(C(=O)OCC)C1` (stereo not drawn), the “hERG current change (%, negative = inhibition) at 1uM” value was determined as 4.7%.
As to `CCc1ccc(NC(=O)CCNC(=O)Cn2cnc3ccccc3c2=O)cc1`, the “hERG current change (%, negative = inhibition) at 1uM” value amounted to 13.8%.
For the molecule `Cc1ccc(-c2csc(N/N=C/C=C/c3ccccc3)n2)cc1`, the “hERG current change (%, negative = inhibition) at 1uM” value is given as 4.66%.
As for `COc1ccc(NC(=O)c2onc(C)c2Cl)cc1OC`, the “hERG current change (%, negative = inhibition) at 1uM” value is -0.133%.
`COc1ccc(-c2c3c(=O)n(C)c(=O)n(C)c3cn2Cc2cccnc2)cc1`: the “hERG current change (%, negative = inhibition) at 1uM” value was 3.91%.
As for `COc1ccc(-n2c(Cc3cccn3C)nnc2SCC(=O)N2CCCc3ccccc32)cc1`, the “hERG current change (%, negative = inhibition) at 1uM” value turned out to be 5.9%.
Regarding `COC(=O)N[C@@H]1C[C@H]2[C@@H]3CC[C@H]4C[C@@H](OC)CC[C@]4(C)[C@H]3CC[C@@]12C`, the “hERG current change (%, negative = inhibition) at 1uM” value came out at 20.7%.
Consider `O=C(Cn1c(=O)n(-c2ccccc2)c(=O)c2sccc21)NCc1ccccc1`, for which the “hERG current change (%, negative = inhibition) at 1uM” value is reported as 11.5%.
As to `CC(=O)N1CCc2cc(S(=O)(=O)NCCC(=O)NC3CCCCCC3)ccc21`, the “hERG current change (%, negative = inhibition) at 1uM” value is given as -7.07%.
Consider `Cc1cc(OCC(=O)NCCN2CCOCC2)cc(C)c1Br`, for which the “hERG current change (%, negative = inhibition) at 1uM” value worked out at 5.37%.
Turning to `CCCCC(=O)c1c(C)cc(C)[nH]c1=O`, the “hERG current change (%, negative = inhibition) at 1uM” value turned out to be 15.7%.
Take `COc1ccc(Nc2nc(OC)nc(OC)n2)cc1`: the “hERG current change (%, negative = inhibition) at 1uM” value is reported as 3.17%.
